Among all 44,000 compounds or so, about 340 (0.77%) were called active. Another 5% or so got no clear call; they are omitted. Calls come from the whole dose curve; as a rule, active = well fitted inhibition curve with a large enough effect; inconclusive = small, poorly fitted or top-dose-only effect; inactive = flat fitted curve, though single readings scatter. The list shows a part of the results.
assay: Acumen qHTS Assay for Inhibitors of the mTORC1 Signaling Pathway in MEF (Tsc2-/-, p53-/-) Cells: Sytravon; details: phospho-rpS6 immunofluorescence/PI, 24 h; series mostly up to 38.3 µM; activity change, negative = inhibition: at the top concentration;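 note: plate controls were DMSO for no effect and rapamycin for full effect; nearly all actives have a fitted effect of over 50% in size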
Procedure, shortened: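 Tsc2-/-, p53-/- mouse embryonic fibroblasts (empty-vector line) exposed to compound 24 hrs at 37 C, fixed, immunostained for phospho-rpS6 and counterstained with propidium iodide. Acumen laser scanning gives % positive cells from Alexa 488/PI ratio, thresholded using 7.5 nM rapamycin; PI count gives viability.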

Activity change, negative = inhibition, inactive:
O=C(NCc1ccc(F)cc1Cl)c1ccc(CSCc2ccccc2Cl)o1 1.84%
Cc1ccc(N2CCN(C(=O)Nc3cn(CC(C)C)c(=O)c4ccccc34)CC2)c(C)c1 4.85%
CC(C)Oc1ccc(CNC(=O)c2cnc3sc(N4CCCCCC4)nn3c2=O)cc1 -1.85%
CCOc1ccc(/C=C/c2nc(C#N)c(N3CCCCCC3)o2)cc1 0.145%
Cc1ccc(CNC(=O)c2ccc(CSCc3c(F)cccc3Cl)o2)cc1 8.42%
COc1ccccc1NC(=O)Cn1c(=O)n(Cc2nc(C)no2)c(=O)c2cc3c(cc21)OCO3 -9.61%
COc1ccccc1NC(=O)N1CCOc2ccccc21 0.236%
Cc1cc(C)n2nc(CNS(=O)(=O)c3ccc(F)cc3)nc2n1 0.902%
CCCN(CCC)CCNC(=O)Cn1cnc2sc(C)c(S(=O)(=O)N3CCN(c4ccccc4OC)CC3)c2c1=O -0.321%
COC(=O)c1cc2oc3ccccc3c2n1CC(=O)Nc1ccc(C)cc1Cl -1.38%
COc1cccc(CNC(=O)c2ccc(CN3CC(=O)N4CCCCC4C3=O)cc2)c1 (stereo not drawn) -4.06%
COc1ccccc1/C=C(\C#N)C(=O)NCC1CCCO1 (stereo not drawn) -0.335%
CCn1c(C(=O)NCc2ccccc2)cc2sc(Cl)cc21 -1.06%
CCOc1ccc(-n2c(SCC(=O)N3CCCc4ccccc43)nc3c([nH]c4ccccc43)c2=O)cc1 -0.534%
CCOc1ccccc1NC(=O)CCS(=O)(=O)c1ccc(OC)cc1 3.93%
CCc1ccc(NC(=O)c2cc(CN3CCOCC3)on2)cc1 -0.74%
CN(c1ccc(Cl)cc1)S(=O)(=O)c1nnc(NC(=O)c2ccco2)s1 -1.51%
CCOC(=O)c1[nH]c(C)c(C(=O)NCCc2ccccc2)c1C -3.82%
O=C(CCn1c(=O)c2ccccc2n(Cc2ccc(Cl)cc2)c1=O)NCc1ccc2c(c1)OCO2 -20.8%
COc1ccc(CCNC(=O)C(=O)Nc2ccc(C)c(C)c2)cc1OC 10.4%
CCCCC(=O)Nc1cccc(-c2nc3ccccc3s2)c1 -26.7%
Cc1cccc(-n2ccnc2SCC(=O)Nc2cc(C(F)(F)F)ccc2Cl)c1 -14.1%
CC(C)c1ccc(Nc2c(-c3ccsc3)nc3ccc(Cl)cn23)cc1 -5.01%
COc1ccc(C)cc1NC(=O)Cc1ccc(NC(=O)N2CCCCc3ccccc32)cc1 -22.8%
Cc1ccc(C)c(Oc2c(C(F)(F)F)oc3c(CN4CCN(C)CC4)c(O)ccc3c2=O)c1 -0.602%
CCOC(=O)C1=C(CN(C)Cc2ccccc2)NC(=O)NC1c1ccc(OC(C)C)cc1 (stereo not drawn) -6.6%
CCn1cc(C(=O)NCc2ccccc2Cl)c(=O)c2cc(S(=O)(=O)N3CCOCC3)ccc21 1.6%
CCC(=O)C1=C(c2ccccc2)N(C(=O)CC)n2c(nnc2C2CCCCC2)S1 -0.762%
O=C(Nc1ccccc1[N+](=O)[O-])c1csnn1 0.863%
COC(=O)c1c(SC)nc2ccccc2c1OCc1cc(C)ccc1C -7.95%
CCCOc1ccc(CNC(=O)c2cc3oc4ccccc4c3n2C)cc1 0.507%
O=C(Nc1ccc2nc(SCC(=O)N3CCc4ccccc43)sc2c1)c1ccc(Cl)cc1 -0.421%
O=C(CSc1nc(-c2cccs2)cc(C(F)(F)F)n1)Nc1ccccc1Cl -24.4%
Cc1ccc(NC(=O)CN2C(=O)C(c3ccc(F)cc3)=NC2(C)C)c(C)c1 -2.23%
Cc1cccc(C(=O)Nc2sc3c(c2C(=O)Nc2ccccc2)CCC3)c1 7.94%
CCOc1ccccc1NC(=O)C(=O)NCC(c1cccnc1)N1CCN(c2ccccc2)CC1 (stereo not drawn) 7.06%
Cc1cccc(Cc2c(C)nc3nc(SCc4cccc(F)c4)nn3c2C)c1 5.46%
O=S(=O)(c1ccccc1)c1nnn2c1nc(NC1CCCCCC1)c1sccc12 -5.9%
CCOc1ccc(CCNC(=O)CN2C(=O)COc3ccc(S(=O)(=O)N(CC)CC)cc32)cc1 -4.33%
Cc1ccc(Cn2ccnc2SCC(=O)NC2CCCC2)cc1 -7.84%
COc1cc(S(=O)(=O)n2ccnc2C(C)C)ccc1Br 6.29%
Cc1ccc(-c2nc(S(=O)(=O)c3ccc(C)cc3)c(N3CCCCC3)o2)cc1 9.52%
COc1ccccc1NC(=O)COC(=O)CC(C)(C)CC1=NS(=O)(=O)c2ccccc2N1 -0.237%
COc1ccc2c(CNCc3ccco3)c(C(=O)O)n(Cc3ccccc3)c2c1 -9.74%
COc1ccc(Cl)cc1NC(=O)Cn1nnc(C(=O)NCc2cccs2)c1N -18.6%
COc1cccc(N2CC(NC(=O)C3CCCC3)CC2=O)c1 (stereo not drawn) 0.849%
COc1ccc(N2CCN(C(=O)c3c4c(nc5ccccc35)C(=O)N(C3CCCCC3)C4)CC2)cc1 -9.36%
CCc1ccc(-n2c(=O)c3ccc(C(=O)NCCc4ccccc4)cc3n(Cc3ccccc3C#N)c2=O)cc1 -5.73%
COc1ccc(-c2nc3ccccc3o2)cc1NC(=O)c1ccc(OCC(C)C)cc1 -0.86%
COc1ccc(-c2nnc(SCC(=O)c3ccc(NC(C)=O)cc3)o2)cc1OC 0.608%
COC(=O)c1c(-c2cccs2)csc1NC(=O)c1ccc(C(C)(C)C)cc1 -3.04%
NC(=O)C1CCN(C(=O)c2ccc3c(c2)N(Cc2cccc(Cl)c2)C(=O)c2ccccc2S3(=O)=O)CC1 0.654%
CCOC(=O)c1c(-c2ccc(C)cc2C)csc1NC(=O)c1ccccc1Cl 8.87%
CCOc1ccc(NS(=O)(=O)c2ccc3[nH]cc(C(=O)N(C)C4CCCCC4)c(=O)c3c2)cc1 0.512%
Cc1ccc2c(=O)cc(C(=O)Nc3c(C(=O)c4ccccc4)oc4ccccc34)oc2c1 2.78%
O=C(NCCCN1CCCCC1)c1ccc2c(c1)sc1nc(-c3ccc(F)cc3)cn12 0%
COCCNC(=O)Cn1cc2c(n1)-c1c(oc(C(=O)N3CCCC3)c1C)CC2 0.0867%
NC(=O)Cn1c(=O)n(CCCCCC(=O)NCc2ccccc2Cl)c(=O)c2sccc21 5.19%
COc1ccc(C2C(=O)N(C3CCCCCC3)CC(=O)N2Cc2ccccc2)cc1 (stereo not drawn) 6.27%
CC(CNC(=O)c1ccc(Nc2nc3ccccc3n3nnnc23)cc1)c1ccccc1 (stereo not drawn) 2.95%
CCCCOC(=O)/C(C#N)=C/c1ccc(-c2ccc(Br)cc2)o1 -4.73%
CCC(=O)N1CCN(c2nc3c(C)cccc3s2)CC1 -3.21%
CCCn1c2ccccc2c2cnn(CC(=O)NC(C)CC)c(=O)c21 (stereo not drawn) 0.821%
COc1ccc(OC(=O)CSc2nnc(-c3ccc(F)cc3)o2)cc1 -0.726%
Cc1ccc([N+](=O)[O-])c(Oc2ncnc3c2oc2ccccc23)c1 0.796%
Cc1ccc(NC(=O)CCCN2C(=O)COc3ccc(C)cc32)c(C)c1 1.8%
CCc1cccc(C)c1NC(=O)c1nc2ccccc2nc1N1CCCCC1 -8.45%
COc1ccc2c(Sc3ccccc3)c(C(=O)N3CCC(C)CC3)[nH]c2c1 2.9%
Cc1ccc(N2C(=O)CSC23C(=O)N(CC(=O)Nc2ccc(C)cc2C)c2ccccc23)cc1 (stereo not drawn) -9.17%
CCc1ccc(C(=O)CSc2nc(-c3ccccc3)nc3c2CCCC3)cc1 -9.81%
Cc1ccc(CNC(=O)CN2C(=O)CSc3ccc(S(=O)(=O)N4CCCC4)cc32)cc1 -3.64%
COc1ccc2nc3sc(C(=O)N4CCN(c5ccc(F)cc5)CC4)cc3cc2c1 0.278%
Cc1ccc(C)c(N2CCN(S(=O)(=O)c3ccc4c(c3)CCCN4C(=O)C3CCC3)CC2)c1 0.762%
COc1ccc(CNS(=O)(=O)c2ccc(F)c(C(=O)Nc3c(C)cc(C)cc3C)c2)cc1 6.66%
CCOC(=O)c1cc(-c2ccc(OC)cc2)n(CCC(=O)Nc2cccc(C(C)=O)c2)c1C -1.21%
Cc1cc2oc(C(=O)Nc3sc4c(c3C(=O)NCc3ccccc3)CCCC4)cc(=O)c2cc1C -0.77%
CN(C)c1ccc(CNC(=O)CN2C(=O)CCn3nc(-c4cn(C)c5ccccc45)cc32)cc1 -0.191%
COc1cccc(-c2nc3c(c(SCc4ccccc4Cl)n2)Cc2c(CO)cnc(C)c2O3)c1 -2.8%
CCCN(CCC)C(=O)C1CCCN(c2ncnc3onc(-c4ccc(F)cc4)c23)C1 (stereo not drawn) 0.198%
Cc1ccc(CSCCC(=O)N2CCN(c3cc(C)ccc3C)CC2)cc1 0%
CCC(C)NC(=O)CSc1nnc(-c2ccc(C)cc2)c(-c2ccc(C)cc2)n1 (stereo not drawn) 8.16%
COCCCNC(=O)c1sc2nc(C)c(C(=O)Nc3ccc(C)cc3C)c(-c3ccc(Br)cc3)c2c1N -5.56%
COc1ccc(-c2noc(CN(C(=O)Cc3ccc(C)cc3)C(C)C)n2)cc1 1.85%
COc1cccc(CNC(=O)C2CCN(C(=O)c3sccc3-n3cccc3)CC2)c1 -0.135%
O=C(NCCCO)C(=O)Nc1c2c(nn1-c1ccccc1)CSC2 -1.8%
CCC(CC)C(=O)NCc1nc2cccnc2n1Cc1ccc(F)cc1 -7.87%
CCCN(CCC)C(=O)c1cn(CC)c2ccc(S(=O)(=O)N3CCCCC3)cc2c1=O 1.12%
O=C(CN1C(=O)C2(SCC(=O)N2c2ccccc2)c2ccccc21)NCCc1ccccc1 (stereo not drawn) -1.98%
Cc1cn2c(=O)cc(COC(=O)c3ccccc3F)nc2s1 -10.6%
CCc1ccc(NC(=O)CSc2nc3c(sc4ccccc43)c(=O)n2CCN(CC)CC)cc1 0.457%
Cc1ccc(CNS(=O)(=O)c2cc3c(cc2C)N(C)CCO3)cc1 -7.62%
COc1cc(C)ccc1OCCSc1nc2ccc(NC(=O)c3cccs3)cc2s1 -4.58%
Cc1ccc(C(=O)Nc2ccccc2C(=O)OCc2cc(=O)n3nc(C4CC4)sc3n2)cc1 4.46%
Cc1ccc(S(=O)(=O)C(CNC(=O)COc2ccc(Cl)cc2)c2ccco2)cc1 (stereo not drawn) 0.232%
Cc1ccc(CNC(=O)c2cccc(NC(=O)N3CCSc4ncccc43)c2)cc1 1.66%
CC(=O)Nc1cccc(NC(=O)CSc2nccn2Cc2ccco2)c1 -7.5%
Cc1cc(C)cc(NC(=O)CCCc2nnc3n(CC(C)C)c(=O)c4sccc4n23)c1 0.377%
Cc1ccc(NC(=O)c2ccc3c(c2)NC(=O)c2ccccc2S3)cc1 -8.57%

Source: PubChem BioAssay AID493208 (National Center for Advancing Translational Sciences (NCATS), 2011)
